# Results as given in ChEMBL document CHEMBL5606460, “ASAP - DENV-2 NS2B-NS3 protease fluorescence single point” (2024).
# About 110 (5.5%) of roughly 2,000 compounds showed an effect of 50% or more. The list shows a part of the results.
# Target: Genome polyprotein (dengue virus type 2) (UniProt P29990)
# [1] = Thailand/16681/1984, Concentration 25.0 uM, Number of replicates 1.0
smiles,measurement,setting,value
N=C(N)NCCC[C@H](NC(=O)[C@H](Cc1ccc(CN)cc1)NC(=O)c1ccccc1)B(O)O,inhibition,"Thailand/16681/1984, Concentration 25.0 uM, Number of replicates 3.0, Standard deviation 0.03506963405710981 %",99.2%
same,inhibition,"Thailand/16681/1984, Concentration 49.5 uM, Number of replicates 2.0, Standard deviation 0.000841588271065532 %",99.2%
same,inhibition,"Thailand/16681/1984, Concentration 49.5 uM, Number of replicates 2.0, Standard deviation 0.023586050776272474 %",99.1%
same,inhibition,"Thailand/16681/1984, Concentration 49.5 uM, Number of replicates 2.0, Standard deviation 0.03248746518177329 %",99.4%
same,inhibition,"Thailand/16681/1984, Concentration 49.5 uM, Number of replicates 2.0, Standard deviation 0.05596562002585788 %",99.3%
same,inhibition,"Thailand/16681/1984, Concentration 49.5 uM, Number of replicates 2.0, Standard deviation 0.06712205941408557 %",99.5%
same,inhibition,"Thailand/16681/1984, Concentration 49.5 uM, Number of replicates 2.0, Standard deviation 0.09040060678362256 %",99.2%
same,inhibition,"Thailand/16681/1984, Concentration 49.5 uM, Number of replicates 2.0, Standard deviation 0.09520737056259301 %",99.3%
same,inhibition,"Thailand/16681/1984, Concentration 49.95 uM, Number of replicates 2.0, Standard deviation 0.47465039008435067 %",97.5%
same,inhibition,"Thailand/16681/1984, Concentration 99.01 uM, Number of replicates 2.0, Standard deviation 0.0013325147625204256 %",99.6%
same,inhibition,"Thailand/16681/1984, Concentration 99.01 uM, Number of replicates 2.0, Standard deviation 0.024875407165917744 %",99.7%
same,inhibition,"Thailand/16681/1984, Concentration 99.01 uM, Number of replicates 2.0, Standard deviation 0.05930499912707304 %",99.8%
same,inhibition,"Thailand/16681/1984, Concentration 99.01 uM, Number of replicates 2.0, Standard deviation 0.0639876825840274 %",99.6%
same,inhibition,"Thailand/16681/1984, Concentration 99.01 uM, Number of replicates 2.0, Standard deviation 0.06968458780354793 %",99.8%
same,inhibition,"Thailand/16681/1984, Concentration 99.01 uM, Number of replicates 2.0, Standard deviation 0.07464240588758142 %",99.5%
same,inhibition,"Thailand/16681/1984, Concentration 99.01 uM, Number of replicates 2.0, Standard deviation 0.12292583554166162 %",99.6%
same,inhibition,"Thailand/16681/1984, Concentration 99.9 uM, Number of replicates 2.0, Standard deviation 0.4080138623651106 %",98.7%
same,inhibition,"Thailand/16681/1984, Concentration 198.0 uM, Number of replicates 2.0, Standard deviation 0.0010358009490037316 %",99.7%
same,inhibition,"Thailand/16681/1984, Concentration 198.0 uM, Number of replicates 2.0, Standard deviation 0.007655216388730705 %",99.8%
same,inhibition,"Thailand/16681/1984, Concentration 198.0 uM, Number of replicates 2.0, Standard deviation 0.011571838727151066 %",99.8%
same,inhibition,"Thailand/16681/1984, Concentration 198.0 uM, Number of replicates 2.0, Standard deviation 0.02492935513201169 %",99.9%
same,inhibition,"Thailand/16681/1984, Concentration 198.0 uM, Number of replicates 2.0, Standard deviation 0.05517797972088629 %",99.9%
same,inhibition,"Thailand/16681/1984, Concentration 198.0 uM, Number of replicates 2.0, Standard deviation 0.06791509451566656 %",99.8%
same,inhibition,"Thailand/16681/1984, Concentration 198.0 uM, Number of replicates 2.0, Standard deviation 0.07632018763310308 %",99.6%
O=Cc1ccc(N2CCC(C(=O)N3CCC(c4nnc5n4CCCCC5)CC3)CC2)cc1,inhibition,[1],12.7%
O=Cc1ccc(N2CCC(C(=O)N3CCC(c4noc5ccc(F)cc45)CC3)CC2)cc1,inhibition,[1],9.99%
O=Cc1ccc(N2CCC(C(=O)N3CCN(C(=O)OCc4ccccc4)CC3)CC2)cc1,inhibition,[1],11.5%
CCOc1ccc(CCNC(=O)C2CCN(c3ccc(C=O)cc3)CC2)cc1OC,inhibition,[1],16.8%
Cc1cc(CO)c2cccc(Cc3ccccc3C(=O)N3CC4(CCCOC4)C3)c2n1,inhibition,"Thailand/16681/1984, Concentration 49.95 uM, Number of replicates 2.0, Standard deviation 0.5044936462842475 %",-0.608%
same,inhibition,"Thailand/16681/1984, Concentration 99.9 uM, Number of replicates 2.0, Standard deviation 0.35429534371445953 %",1.95%
NC(=O)c1cccc(NC(=O)[C@@H](NC(=O)OCc2ccccc2)c2ccc(OCc3ccccc3)cc2)c1,inhibition,"Thailand/16681/1984, Concentration 49.5 uM, Number of replicates 2.0, Standard deviation 9.041969593425012 %",3.65%
same,inhibition,"Thailand/16681/1984, Concentration 99.01 uM, Number of replicates 2.0, Standard deviation 1.1271011381219709 %",9.06%
same,inhibition,"Thailand/16681/1984, Concentration 198.0 uM, Number of replicates 2.0, Standard deviation 1.277025907644923 %",16%
Cc1cc(CO)c2cccc(Cc3cccc(C(=O)NCCc4ncc[nH]4)c3)c2n1,inhibition,"Thailand/16681/1984, Concentration 49.95 uM, Number of replicates 2.0, Standard deviation 2.0725920117726813 %",-4.03%
same,inhibition,"Thailand/16681/1984, Concentration 99.9 uM, Number of replicates 2.0, Standard deviation 0.8997522707097182 %",1.59%
Cc1nn(Cc2nnc(-c3ccccc3)o2)cc1C1CCNCC1,inhibition,"Thailand/16681/1984, Concentration 49.5 uM, Number of replicates 2.0, Standard deviation 0.7783572877313132 %",-0.64%
same,inhibition,"Thailand/16681/1984, Concentration 99.01 uM, Number of replicates 2.0, Standard deviation 0.2127849870308208 %",0.045%
same,inhibition,"Thailand/16681/1984, Concentration 198.0 uM, Number of replicates 2.0, Standard deviation 0.7570324627928547 %",0.731%
O=Cc1ccc(N2CCC(C(=O)NCCCSc3ccccc3)CC2)cc1,inhibition,[1],1.55%
O=Cc1ccc(N2CCC(C(=O)Nc3cc(Cl)cc(Cl)c3O)CC2)cc1,inhibition,[1],98.2%
COC(=O)c1csc(Cn2cc(C3CCNCC3)c(C)n2)n1,inhibition,"Thailand/16681/1984, Concentration 49.5 uM, Number of replicates 2.0, Standard deviation 2.0495979556305928 %",-1.05%
same,inhibition,"Thailand/16681/1984, Concentration 99.01 uM, Number of replicates 2.0, Standard deviation 1.2818480023400394 %",-0.667%
same,inhibition,"Thailand/16681/1984, Concentration 198.0 uM, Number of replicates 2.0, Standard deviation 0.9661419864840785 %",0.161%
Cc1cnccc1NC(=O)c1cc(-n2ccnc2)ccn1,inhibition,"Thailand/16681/1984, Concentration 49.5 uM, Number of replicates 2.0, Standard deviation 0.8298151073797565 %",-0.748%
same,inhibition,"Thailand/16681/1984, Concentration 99.01 uM, Number of replicates 2.0, Standard deviation 0.1307306310957575 %",-1.01%
same,inhibition,"Thailand/16681/1984, Concentration 198.0 uM, Number of replicates 2.0, Standard deviation 0.4404046637498242 %",0.113%
O=C(N[C@@H](C(=O)NC1CCNCC1)c1ccc(OCc2ccccc2)cc1)OCc1ccccc1,inhibition,"Thailand/16681/1984, Concentration 49.5 uM, Number of replicates 2.0, Standard deviation 0.04752487067458113 %",-0.225%
same,inhibition,"Thailand/16681/1984, Concentration 99.01 uM, Number of replicates 2.0, Standard deviation 0.6611370067327399 %",-0.49%
same,inhibition,"Thailand/16681/1984, Concentration 198.0 uM, Number of replicates 2.0, Standard deviation 1.22541945186685 %",2.06%
